Experimental data taken from PubChem BioAssay AID1347073 (National Center for Advancing Translational Sciences (NCATS), 2019).
Hit rate of the full screen: of about 45,000 compounds, about 200 (0.44%) were called active. About 7% were inconclusive and are not listed. Calls come from the whole dose curve; as a rule, active = well fitted activation curve with a large enough effect; inconclusive = small, poorly fitted or top-dose-only effect; inactive = no such curve, though single readings can be large or run the other way. Some of the results follow.

Test: qHTS of TDP-43 Inhibitors: NCGC Sytravon Library Screen; note: 0% is about no effect; nearly all actives have a fitted effect of over 55% in size
Details: yeast TDP-43 toxicity rescue, BacTiter-Glo growth, 24 h; series mostly up to 46.1 µM; growth rescue (activation): at the top concentration
Procedure, shortened: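 TDP-43-expressing yeast, pregrown in raffinose, seeded at OD600 0.02 in galactose medium with compound for 24 hr at 30 deg C. Growth read by BacTiter-Glo luminescence, so rescue of toxicity appears as activation.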

SMILES	growth rescue (activation)
O=C(COC(=O)Cc1ccccc1[N+](=O)[O-])NCc1ccc(F)cc1	inactive: 7.7%
Cc1ccc(C(=O)N/N=C\c2ccc([N+](=O)[O-])s2)cn1	inactive: 26.4%
CC(=O)NCC(=O)N1CCCC(C(=O)c2ccc(-c3ccccc3)c(F)c2)C1 (stereo unspecified)	inactive: -2%
COCCNC(=S)N/N=C/c1c(C)[nH]c2ccccc12	inactive: 18.8%
Cc1csc(NC(=O)CSc2nc3[nH]ncc3c(=O)[nH]2)n1	inactive: 1.46%
CN1CCN(C(c2ccc(Cl)cc2)c2cc(Cl)c3cccnc3c2O)CC1 (stereo unspecified)	inactive: -87.9%
Cn1c(CCN2CCN(c3ccccc3)CC2)nc2cc(NC(=O)c3ccco3)ccc21	inactive: 15.7%
NC(CCc1ccccc1)c1csc(Nc2ccc(C(=O)NCCO)cc2)n1 (stereo unspecified)	inactive: 16.9%
C/C(N)=C(/C#N)C(=O)COC(=O)CNS(=O)(=O)c1ccc(F)c(F)c1F	inactive: 6.24%
O=C(O)COc1ccccc1C(Nc1cccnc1)c1cc(Cl)c2cccnc2c1O (stereo unspecified)	inactive: 7.25%
Cn1ccnc1SCc1cn2cc(Br)ccc2n1	inactive: -1.51%
C/C(N)=C(/C#N)C(=O)COC(=O)c1cccc(O)c1	inactive: 5.12%
CC(NC(=O)c1ccccc1F)c1nnc(SCC(=O)Nc2nccs2)n1C (stereo unspecified)	inactive: 11.9%
CC(=O)Nc1ccc(C(=O)N/N=C(\C)CC(=O)Nc2ccc(OCc3ccccc3)cc2)cc1	inactive: 19.1%
O=C(Nc1nc2ccccc2c(=O)[nH]1)c1ccccc1SCc1ccccc1	inactive: 0.215%
CCOC(=O)NC(N(O)c1cccc(Cl)c1)C(Cl)(Cl)Cl (stereo unspecified)	inactive: 23.1%
CCOC(=O)N1CCN(Cc2nc3cc(NC(=O)CC(C)C)ccc3n2C(C)C)CC1	inactive: 11.9%
O=C(CCc1nc2ccccc2c(=O)[nH]1)Nc1ccc(F)cc1	inactive: -5.34%
O=C(NC1CCCC1)C1CCCN(C(=O)Nc2ccccc2)C1 (stereo unspecified)	inactive: 5.64%
COc1ccc(C(=O)NCCCNC(=O)c2ccco2)cc1OC	inactive: -4.69%
CCn1cc(C(=O)O)c(=O)c2cnc(N3CCN(C(=S)NC(=O)c4ccc(F)c(F)c4)CC3)nc21	inactive: 8.34%
CC(C)(C)C(=O)NC(=S)Nc1ccc(Cl)c(C(=O)O)c1	inactive: 6.46%

SMILES	growth rescue (activation)
Cc1nn(Cc2ccc(Cl)cc2)c(C)c1NC(=O)C1CC=CCC1C(=O)O (stereo unspecified)	inactive: -1.53%
CC1CCN(Cc2csc(N)n2)CC1	inactive: 2.79%
COc1ccc(/C=N/n2c(C)cc(C)cc2=O)cc1	inactive: -3.3%
NNc1ccc2nnc(C(F)(F)C(F)(F)C(F)(F)F)n2n1	inactive: 0.412%
O=C(NC1CCCC1)C(c1cccnc1)N(CCc1ccccc1)C(=O)c1ccco1 (stereo unspecified)	inactive: 5.42%
CN(c1cccc(NC(=O)CN(c2cccc(Cl)c2)S(=O)(=O)c2ccc(Cl)cc2)c1)S(C)(=O)=O	inactive: 4.75%
COc1ccc(C(=O)NC2CCN(C(=O)Nc3ccc(F)cc3)CC2)cc1	inactive: 4.62%
Cc1ccc(N2C(=O)C(CN(C)C)C2c2ccccc2)cc1 (stereo unspecified)	inactive: -17%
Cc1cc(C)n(CC(=O)c2cccc([N+](=O)[O-])c2)n1	inactive: 2.6%
CCOC(=O)C(NC(=O)CC)(Nc1ccccc1)C(F)(F)F (stereo unspecified)	inactive: 17.9%
CCCCNC(=O)c1cccc(NC(=O)C(=O)c2ccccc2NC(C)=O)c1	inactive: 2.9%
O=C(COC(=O)CNC(=O)c1ccc(Br)o1)Nc1ccccc1OC(F)F	inactive: -0.451%
CSc1ccc(/C=N/NC(=O)CN2CCN(Cc3ccccc3)CC2)cc1	inactive: -3.23%
CCCCCCSc1nc(N)c2c3c(sc2n1)CCCC3C (stereo unspecified)	inactive: 11.3%
COc1ccc([N+](=O)[O-])cc1N(CC(O)CN(CC(C)C)CC(C)C)S(=O)(=O)c1ccc(C)cc1 (stereo unspecified)	inactive: -6.92%
CCC(CC)NC(=O)CO/N=C/c1ccccc1OC(F)F	inactive: -4.98%
O=C(Cn1cc(/C=C\[N+](=O)[O-])c2ccccc21)Nc1ccccc1	inactive: 3.03%
COc1ccccc1OCC(=O)Nc1ccccc1C(=O)Nc1cccc(C(=O)O)c1	inactive: 9.3%
O=C(CC1CCC1)NC(c1ccccc1)c1ccccc1	inactive: -3.61%
CN(C)c1ccc(-c2cc(NC=O)c3ncc(-c4ccc(F)c(Cl)c4)n3c2)cc1	inactive: 26.3%
CN1CCN(c2ccc(NC(=O)c3ccc4ccccc4c3)cc2)CC1	inactive: -10.6%
CN(C(=O)n1cnc2ccccc21)c1ccccc1	inactive: 24.2%

SMILES	growth rescue (activation)
O=C(c1cc(=O)[nH]c2ccccc12)N1CCN(c2ccc([N+](=O)[O-])cc2)CC1	inactive: 30.5%
COc1ccc([N+](=O)[O-])cc1NS(=O)(=O)c1cccc(C(=O)O)c1	inactive: 23.1%
O=[N+]([O-])c1cccc(Oc2cnccn2)c1	inactive: 14.1%
O=c1c2ccccc2c(C=Nc2cccc(S(=O)(=O)NCc3ccco3)c2)c(O)n1-c1ccc(Cl)cn1	inactive: 5.26%
COc1ccccc1-c1c(C)nn2c(C(F)(F)F)cc(-c3ccccc3)nc12	inactive: 17.5%
COc1ccc(CNC(=O)CCN2C(=O)c3ccncc3C2=O)cc1OC	inactive: -3.63%
CC(C)Nc1ncnc2ccc(Br)cc12	inactive: 6.76%
COc1cccc(C(=O)N(Cc2cccc(Cl)c2)Cc2ccco2)c1	inactive: 2.1%
O=C(COC(=O)c1ccc(O)cc1)Nc1cccc(S(=O)(=O)NC2=NCCCCC2)c1	inactive: 7.19%
c1ccc(-c2nc(NCCCn3ccnc3)c3ccccc3n2)cc1	inactive: -9.22%
Cc1ccc(S(=O)(=O)Nc2cc(=O)[nH]c(SCC(=O)Nc3ccccc3C(F)(F)F)n2)cc1	inactive: 17.4%
Cc1ccc(C(=O)O)cc1-n1c(C)cc(C=O)c1C	inactive: 17.4%
COc1ccc(S(=O)(=O)Nc2ccccc2N2CCOCC2)cc1[N+](=O)[O-]	inactive: 9.56%
CC(=O)c1cccc(NC(=O)/C(=C\c2cccnc2)NC(=O)c2ccco2)c1	inactive: 1.03%
O=C(CSc1nnc(-c2ccccc2Cl)o1)N1CCCC1	inactive: 5.53%
COc1ccc(C2c3ccc4ccccc4c3Oc3ncn(CCN(C)C)c(=N)c32)cc1 (stereo unspecified)	inactive: 3.31%
O=C(COC(=O)CCc1ccc(S(=O)(=O)N2CCOCC2)cc1)Nc1ccccc1OC(F)F	inactive: 13.3%
O=C(Nc1cc(S(=O)(=O)Nc2ccc(Cl)cc2)ccc1N1CCCCC1)c1ccc(F)cc1Cl	inactive: 10.1%
Cc1ccc(CN2CC(C(=O)Nc3ccc(F)c([N+](=O)[O-])c3)CC2=O)cc1 (stereo unspecified)	inactive: -13.8%
CCCC(C(=O)NC1CCCC1)N(Cc1ccc(OC)cc1)C(=O)c1snc(C(N)=O)c1N (stereo unspecified)	inactive: 8.08%
NC(=O)CCN1CCN(Cc2nc(C(c3ccccc3)c3ccccc3)no2)CC1	inactive: -9.75%
CNc1nc(Cl)nc(NC(C)(C)C)n1	inactive: 5.94%

SMILES	growth rescue (activation)
COc1ccccc1-c1cc(C(=O)N2CCOCC2)no1	inactive: 15.1%
Cc1cccc(C)c1NC(=O)N1CCC(C(=O)c2ccc(F)cc2)CC1	inactive: 33.9%
COC(=O)c1ccc(C(=O)Nc2ccc(N)cc2N)cc1	inactive: 8.19%
CC(C)c1ccc(NC(=O)CNC(=O)Cn2ccc3ccccc3c2=O)cc1	inactive: 6.31%
O=[N+]([O-])c1ccccc1S(=O)(=O)N1CCN(Cc2cc3c(cc2O)OCO3)CC1	inactive: 8.34%
Cc1ccc(NC(=O)Cn2nnc3ccccc32)cc1	inactive: 8.34%
COc1ccc(CN(Cc2ccc(C(=O)O)cc2)C(=S)Nc2cc(C)cc(C)c2)cc1OC	inactive: 4.23%
CC1CCN(c2ccccc2NC(=O)c2ccc(C#N)cc2F)CC1	inactive: -0.863%
O=C(COc1ccc(F)cc1)c1ccc2c(c1)CCCC2	inactive: 20.1%
Cc1ccc(S(=O)(=O)N2CCOCC2)cc1C(=O)NCCc1ccc(Cl)cc1	inactive: -0.373%
Cc1onc(-c2c(Cl)cccc2Cl)c1C(=O)NC1C(=O)N2C1SC(C)(C)C2C(=O)O (stereo unspecified)	inactive: 4.36%
COc1ccc(N(CC(=O)Nc2cccc(C)c2C)S(=O)(=O)c2c(C)[nH]c(=O)[nH]c2=O)cc1	inactive: 30.9%
COc1ccc(NC(=O)CCNC(=O)c2ccco2)c(OC)c1	inactive: -8.03%
CCCc1nc2sc3c(c2c(=O)n1N)CCC3	inactive: 17.3%
Cc1cc(C)cc(NC(=O)COC(=O)COc2ccc(N(C)S(=O)(=O)c3cccs3)cc2)c1	inactive: 13.6%
Cn1c(C(=O)N2CCCC(C(=O)c3ccc(C(F)(F)F)cc3)C2)cc(=O)n(C)c1=O (stereo unspecified)	inactive: 11.8%
C=CC[N+]1(CC#Cc2ccccc2)CCCC1	inactive: 1.2%
Fc1cccc(NC(=S)N2CCCC2)c1	inactive: -1.99%
O=C(NC(=S)NC1CCSC1=O)c1cccs1 (stereo unspecified)	inactive: 3.35%
Cc1sc2nc(CSCC(=O)Nc3c(Cl)cccc3Cl)[nH]c(=O)c2c1C	inactive: 12.1%
C/C(=N\Nc1cccc(Cl)c1)c1ccc(-n2ccnc2)cc1	inactive: -3.56%
N#Cc1c(SCC(=O)O)nc(N2CCOCC2)c2c1CCCC2	inactive: 18.1%

SMILES	growth rescue (activation)
CN(C)S(=O)(=O)c1cccc(NC(=O)CCCSc2ccccc2)c1	inactive: 18.5%
CCOc1ccccc1N(CC(=O)NCc1ccncc1)S(=O)(=O)c1ccccc1	inactive: -2.92%
Nc1nc(SCC(=O)Nc2cccnc2Cl)n[nH]1	inactive: 6.17%
CC(C)Oc1ccc(C(=O)Nc2ccc(N3CCN(C(=O)c4ccco4)CC3)cc2)cc1	inactive: 9.73%
N#Cc1ccccc1Cn1c(=O)n(-c2ccc(F)c(Cl)c2)c(=O)c2sccc21	inactive: 2.34%
CSc1ccccc1NC(=O)CSc1cccc[n+]1[O-]	inactive: -26.4%
O=C(C1=C(Nc2ccccc2)c2ccccc2S(=O)(=O)N1)c1ccccc1	inactive: 8.23%
S=c1nc[nH]c2c1[nH]c1ccc(Cl)cc12	inactive: 4.07%
Cn1c(=O)n(C)c2cc([N+](=O)[O-])c(N3CCN(C(=O)c4ccc(F)cc4)CC3)cc21	inactive: 10.1%
COc1ccccc1-c1c(NC(=O)c2ccco2)n(C)c2ccccc2c1=O	inactive: 8.58%
CCC(C)NC(=S)N(CCc1ccccc1)Cc1cc2cc(OC)c(OC)cc2[nH]c1=O (stereo unspecified)	inactive: 26.9%
CCN(CC)C(=O)CN1CCN(Cc2ccc3c(c2)OCO3)CC1	inactive: -3.03%
Cc1noc(NS(=O)(=O)c2ccc(NC(=O)c3cc4ccccc4o3)cc2)c1C	inactive: 25.9%
O=C(COC(=O)Cn1cnc2ccccc2c1=O)NNC(=O)c1ccc(Br)cc1	inactive: 10.6%
O=C(Nc1ccnn1C1CCN(C2CCC2)CC1)c1ccccc1	inactive: -10.9%
COc1ccc(C(C)(O)c2nc(-c3ccc(Cl)cc3)cs2)cc1 (stereo unspecified)	inactive: 2.07%
CCCCN(C)c1c(C)nc2ccc(C(=O)N(CC)CCN(C)C)cn12	inactive: 7.86%
Cc1ccccc1CN(C)C(=O)c1ccc2ccccc2n1	inactive: 24.3%
